Consider 20 molecules from PMC9911399, “Two distinct binding modes provide the RNA-binding protein RbFox with extraordinary sequence specificity”.

B1: AUCGCAA (DNA:RNA)
RNA: GGGAGACCGGAAUUCAGAUUGUCCAUCGCAAUUAAAUCCCGUCGUAGCCACCA
DNA 1: CAATCTGAATTCCGGTCTCCC
DNA 2: TGGTGGCTACGACGGGATT
B2: GUGAUUA (DNA:RNA)
RNA: B1 RNA with A25G, C27G, G28A, C29U, A30U
DNA 1: CAATCTGAATTCCGGTCTCCC
DNA 2: TGGTGGCTACGACGGGATT
B3: ACACAAA (DNA:RNA)
RNA: B1 RNA with U26C, C27A, G28C, C29A
DNA 1: CAATCTGAATTCCGGTCTCCC
DNA 2: TGGTGGCTACGACGGGATT
B4: UCGGAUG (DNA:RNA)
RNA: B1 RNA with A25U, U26C, C27G, C29A, A30U, A31G
DNA 1: CAATCTGAATTCCGGTCTCCC
DNA 2: TGGTGGCTACGACGGGATT
B5: AGAUGCA (DNA:RNA)
RNA: B1 RNA with U26G, C27A, G28U, C29G, A30C
DNA 1: CAATCTGAATTCCGGTCTCCC
DNA 2: TGGTGGCTACGACGGGATT
B6: CAAAUCU (DNA:RNA)
RNA: GGGAGACCGGAAUUCAGAUUGUCCCAAAUCUUUAAAUCCCGUCGUAGCCACCA
DNA 1: CAATCTGAATTCCGGTCTCCC
DNA 2: TGGTGGCTACGACGGGATT
B7: AUUCGGU (DNA:RNA)
RNA: B1 RNA with C27U, G28C, C29G, A30G, A31U
DNA 1: CAATCTGAATTCCGGTCTCCC
DNA 2: TGGTGGCTACGACGGGATT
B8: UCAGGCA (DNA:RNA)
RNA: B1 RNA with A25U, U26C, C27A, C29G, A30C
DNA 1: CAATCTGAATTCCGGTCTCCC
DNA 2: TGGTGGCTACGACGGGATT
B9: UCAAAUA (DNA:RNA)
RNA: B6 RNA with C25U, A26C, U29A, C30U, U31A
DNA 1: CAATCTGAATTCCGGTCTCCC
DNA 2: TGGTGGCTACGACGGGATT
B10: GAUAUUG (DNA:RNA)
RNA: B6 RNA with C25G, A27U, C30U, U31G
DNA 1: CAATCTGAATTCCGGTCTCCC
DNA 2: TGGTGGCTACGACGGGATT
B11: UCACAAA (DNA:RNA)
RNA: B1 RNA with A25U, U26C, C27A, G28C, C29A
DNA 1: CAATCTGAATTCCGGTCTCCC
DNA 2: TGGTGGCTACGACGGGATT
B12: UUAGAUG (DNA:RNA)
RNA: B1 RNA with A25U, C27A, C29A, A30U, A31G
DNA 1: CAATCTGAATTCCGGTCTCCC
DNA 2: TGGTGGCTACGACGGGATT
B13: CAAGACG (DNA:RNA)
RNA: B6 RNA with A28G, U29A, U31G
DNA 1: CAATCTGAATTCCGGTCTCCC
DNA 2: TGGTGGCTACGACGGGATT
B14: CUGGAAA (DNA:RNA)
RNA: B1 RNA with A25C, C27G, C29A
DNA 1: CAATCTGAATTCCGGTCTCCC
DNA 2: TGGTGGCTACGACGGGATT
B15: CAGAAAU (DNA:RNA)
RNA: B6 RNA with A27G, U29A, C30A
DNA 1: CAATCTGAATTCCGGTCTCCC
DNA 2: TGGTGGCTACGACGGGATT
B16: GGCCUGC (DNA:RNA)
RNA: B1 RNA with A25G, U26G, G28C, C29U, A30G, A31C
DNA 1: CAATCTGAATTCCGGTCTCCC
DNA 2: TGGTGGCTACGACGGGATT
B17: CCGCUAA (DNA:RNA)
RNA: B1 RNA with A25C, U26C, C27G, G28C, C29U
DNA 1: CAATCTGAATTCCGGTCTCCC
DNA 2: TGGTGGCTACGACGGGATT
B18: CAUGUAC (DNA:RNA)
RNA: B6 RNA with A27U, A28G, C30A, U31C
DNA 1: CAATCTGAATTCCGGTCTCCC
DNA 2: TGGTGGCTACGACGGGATT
B19: AACAUGC (DNA:RNA)
RNA: B6 RNA with C25A, A27C, C30G, U31C
DNA 1: CAATCTGAATTCCGGTCTCCC
DNA 2: TGGTGGCTACGACGGGATT
B20: GCCAGGU (DNA:RNA)
RNA: B6 RNA with C25G, A26C, A27C, U29G, C30G
DNA 1: CAATCTGAATTCCGGTCTCCC
DNA 2: TGGTGGCTACGACGGGATT

Positions count from the first letter of the chain named. The list shows a part of the results.

For this assay, the target named is T1, RBFOX1 RRM RbFoxmut (Fox-RRM*) (Homo sapiens, UniProt Q9NWB1 109-208, R118D;E147R;N151S;E152T).
T1 sequence: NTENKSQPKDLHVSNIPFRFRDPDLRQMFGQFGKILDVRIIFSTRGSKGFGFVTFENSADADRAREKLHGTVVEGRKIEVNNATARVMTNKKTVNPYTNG
The assay can be described thus: EMSA; HiTS-Eq, 1 nM pool, 10 min; buffer printed only for the single-RNA assays: 10 mM Tris pH 7.5, 150 mM NaCl, 3.4 mM EDTA, 0.001% NP-40, 30 C. To be noted: tags: His6 N-terminal (pET28a); label: 5' 32P. An outline of the steps:
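These values rest on relative association constants, computed from read-count changes of each RNA species versus the control reaction and normalised to the cognate motif. Reads came from free RNA recovered by 8% native PAGE after purified RbFox RRM (wild type or mutant) at increasing concentrations was equilibrated for 10 min in 50 µL with 1 nM of a 5′-radiolabelled pool with 7 randomized nucleotides and DNA-annealed flanks.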
B1: the binding signal is 0.0865 KA relative to UGCAUGU. As for B2, the figure is 0.138 KA relative to UGCAUGU; as for B3, 0.0812 KA relative to UGCAUGU. As for B4, the figure is 0.119 KA relative to UGCAUGU; as for B5, 0.152 KA relative to UGCAUGU. Turning to B6, the binding signal is 0.0525 KA relative to UGCAUGU. With B7, the binding signal is 0.108 KA relative to UGCAUGU. Consider B8, for which the binding signal is 0.108 KA relative to UGCAUGU.

As for B9, the binding signal was 0.117 KA relative to UGCAUGU.

On to B10, for which the binding signal is 0.127 KA relative to UGCAUGU.

In the case of B11, the binding signal is 0.0764 KA relative to UGCAUGU.

B12: the binding signal is 0.103 KA relative to UGCAUGU. As for B13, the figure is 0.0698 KA relative to UGCAUGU; as for B14, 0.0921 KA relative to UGCAUGU; as for B15, 0.089 KA relative to UGCAUGU.

B16: the binding signal was 0.131 KA relative to UGCAUGU.

In the case of B17, the binding signal is 0.0851 KA relative to UGCAUGU. For the molecule B18, the binding signal is 0.158 KA relative to UGCAUGU. B19: the binding signal is 0.0713 KA relative to UGCAUGU.

For B20, the binding signal is 0.0955 KA relative to UGCAUGU.
